Results taken from PubChem BioAssay (NCI).
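Five concentrations, 48 hours, 96-well plates. GI50: concentration for 50% inhibition of growth. TGI: total growth inhibition.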

Test system: NCI-H322M lung
Assay: NCI anticancer screen, dose series, 48 h

`CCN1CCN(c2ccc(NC(=O)Nc3ccc4c(ccn4-c4ccnc(C(=O)NC)c4)c3)cc2C(F)(F)F)CC1` showed a GI50 of 2.28 µM and a TGI of 4.43 µM.
`Oc1ccc(CSc2nnc(-c3ccccc3)n2-c2ccccc2)c2cccnc12` gave a GI50 of 0.555 µM and a TGI of over 100 µM.
For `CN1CCN(c2ccc(NC(=O)Nc3ccc4c(ccn4-c4cccc(C(N)=O)n4)c3)cc2C(F)(F)F)CC1`, the GI50 was 7.82 µM and the TGI was 15.9 µM.
In the case of `CCN(CC)CCn1c2ccc(O)cc2c2sc3cc(OC)ccc3c(=O)c21`, the GI50 was 6.89 µM and the TGI was 24.7 µM.
`Oc1ccc(CSc2nnc(-c3ccc(Oc4ccccc4)cc3)o2)c2cccnc12` was tested, and the GI50 was 0.903 µM and the TGI was over 100 µM.
